# From the supplement of paper PMC8728848
# Some of the results follow.
# B1: GS13455A-bfa-343-25-343 (Bacteroides fragilis) (protein)
# chain: KDEIQIVDQDTSWQMDNKYIEEDIREQLGIDPFTDLVYLGYYGNPYTQLEAINDLVNTTLVGKNELSFKVKVTKPYKEDIKVNLMKEDKLVTDFPEMAEGIPLFPSENCTFEGGVLKAGELETTVKLTLKDVEKLNNLSGYVMAIKLTMEGSHEHLAIARTRSSYFVKLNLSIRLDNIDSSNKKIEGKGFNKEISFKSDIRPDKLGSLNDGNFTANNWYTSNANNYLTIILPEKQSLKGFRLDTNTSPSGSYMLKSCRVMVETPDGNWVNHGVFDRKSMDGIAYISFKKPVECTKVRFENMMAFNGRFSVDVNEVTAFR
# Experiments:
# Test in all cases: glycan array binding signal (z-score within array); higher = stronger binding
# Settings in all cases: glycan notation: IUPAC condensed, linker removed
# [1] = target: Gal(b1-4)GlcNAc(b1-3)Gal(b1-4)Glc
# Procedure, shortened: (§1)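 Negative Z-scores can be read as non-binding. The Z-score is calculated within each array and then averaged across arrays of one protein sequence at different concentrations or buffers and across linkers. Arrays, 3228 in all, were curated from the Consortium for Functional Glycomics database and kept only where the protein sequence was available.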
# [2] = target: Gal(b1-4)GlcNAc(b1-3)Gal(b1-4)GlcNAc
# Procedure, shortened: as §1
# [3] = target: Gal(b1-4)GlcNAc(b1-3)Gal(b1-4)GlcNAc(b1-2)Man(a1-3)[Gal(b1-4)GlcNAc(b1-3)Gal(b1-4)GlcNAc(b1-2)Man(a1-6)]Man(b1-4)GlcNAc(b1-4)GlcNAc
# Procedure, shortened: as §1
# [4] = target: Gal(b1-4)GlcNAc(b1-3)Gal(b1-4)GlcNAc(b1-2)Man(a1-3)[Gal(b1-4)GlcNAc(b1-3)Gal(b1-4)GlcNAc(b1-2)Man(a1-6)]Man(b1-4)GlcNAc(b1-4)[Fuc(a1-6)]GlcNAc
# Procedure, shortened: as §1
# [5] = target: Gal(b1-4)GlcNAc(b1-3)Gal(b1-4)GlcNAc(b1-2)[Gal(b1-4)GlcNAc(b1-3)Gal(b1-4)GlcNAc(b1-6)]Man(a1-6)[Gal(b1-4)GlcNAc(b1-3)Gal(b1-4)GlcNAc(b1-2)Man(a1-3)]Man(b1-4)GlcNAc(b1-4)GlcNAc
# Procedure, shortened: as §1
# [6] = target: Gal(b1-4)GlcNAc(b1-3)Gal(b1-4)GlcNAc(b1-2)[Gal(b1-4)GlcNAc(b1-3)Gal(b1-4)GlcNAc(b1-6)]Man(a1-6)[Gal(b1-4)GlcNAc(b1-3)Gal(b1-4)GlcNAc(b1-2)Man(a1-3)]Man(b1-4)GlcNAc(b1-4)[Fuc(a1-6)]GlcNAc
# Procedure, shortened: as §1
# [7] = target: Gal(b1-4)GlcNAc(b1-3)Gal(b1-4)GlcNAc(b1-3)Gal(b1-4)GlcNAc
# Procedure, shortened: as §1
# [8] = target: Gal(b1-4)GlcNAc(b1-3)Gal(b1-4)GlcNAc(b1-3)Gal(b1-4)GlcNAc(b1-2)Man(a1-3)[Gal(b1-4)GlcNAc(b1-3)Gal(b1-4)GlcNAc(b1-3)Gal(b1-4)GlcNAc(b1-2)Man(a1-6)]Man(b1-4)GlcNAc(b1-4)GlcNAc
# Procedure, shortened: as §1
# [9] = target: Gal(b1-4)GlcNAc(b1-3)Gal(b1-4)GlcNAc(b1-3)Gal(b1-4)GlcNAc(b1-2)Man(a1-3)[Gal(b1-4)GlcNAc(b1-3)Gal(b1-4)GlcNAc(b1-3)Gal(b1-4)GlcNAc(b1-2)Man(a1-6)]Man(b1-4)GlcNAc(b1-4)[Fuc(a1-6)]GlcNAc
# Procedure, shortened: as §1
# [10] = target: Gal(b1-4)GlcNAc(b1-3)Gal(b1-4)GlcNAc(b1-3)Gal(b1-4)GlcNAc(b1-2)[Gal(b1-4)GlcNAc(b1-3)Gal(b1-4)GlcNAc(b1-3)Gal(b1-4)GlcNAc(b1-6)]Man(a1-6)[Gal(b1-4)GlcNAc(b1-3)Gal(b1-4)GlcNAc(b1-3)Gal(b1-4)GlcNAc(b1-2)Man(a1-3)]Man(b1-4)GlcNAc(b1-4)[Fuc(a1-6)]GlcNAc
# Procedure, shortened: as §1
# [11] = target: Gal(b1-4)GlcNAc(b1-3)Gal(b1-4)GlcNAc(b1-3)Gal(b1-4)GlcNAc(b1-3)Gal(b1-4)GlcNAc(b1-2)Man(a1-3)[Gal(b1-4)GlcNAc(b1-3)Gal(b1-4)GlcNAc(b1-3)Gal(b1-4)GlcNAc(b1-3)Gal(b1-4)GlcNAc(b1-2)Man(a1-6)]Man(b1-4)GlcNAc(b1-4)GlcNAc
# Procedure, shortened: as §1
# [12] = target: Gal(b1-4)GlcNAc(b1-3)Gal(b1-4)GlcNAc(b1-3)Gal(b1-4)GlcNAc(b1-3)Gal(b1-4)GlcNAc(b1-2)Man(a1-3)[Gal(b1-4)GlcNAc(b1-3)Gal(b1-4)GlcNAc(b1-3)Gal(b1-4)GlcNAc(b1-3)Gal(b1-4)GlcNAc(b1-2)Man(a1-6)]Man(b1-4)GlcNAc(b1-4)[Fuc(a1-6)]GlcNAc
# Procedure, shortened: as §1
# [13] = target: Gal(b1-4)GlcNAc(b1-3)Gal(b1-4)GlcNAc(b1-3)Gal(b1-4)GlcNAc(b1-3)Gal(b1-4)GlcNAc(b1-2)[Gal(b1-4)GlcNAc(b1-3)Gal(b1-4)GlcNAc(b1-3)Gal(b1-4)GlcNAc(b1-3)Gal(b1-4)GlcNAc(b1-6)]Man(a1-6)[Gal(b1-4)GlcNAc(b1-3)Gal(b1-4)GlcNAc(b1-3)Gal(b1-4)GlcNAc(b1-3)Gal(b1-4)GlcNAc(b1-2)Man(a1-3)]Man(b1-4)GlcNAc(b1-4)[Fuc(a1-6)]GlcNAc
# Procedure, shortened: as §1
# [14] = target: Gal(b1-4)GlcNAc(b1-3)Gal(b1-4)GlcNAc(b1-3)Gal(b1-4)GlcNAc(b1-3)Gal(b1-4)GlcNAc(b1-3)Gal(b1-4)GlcNAc(b1-2)Man(a1-3)[Gal(b1-4)GlcNAc(b1-3)Gal(b1-4)GlcNAc(b1-3)Gal(b1-4)GlcNAc(b1-3)Gal(b1-4)GlcNAc(b1-3)Gal(b1-4)GlcNAc(b1-2)Man(a1-6)]Man(b1-4)GlcNAc(b1-4)GlcNAc
# Procedure, shortened: as §1
# [15] = target: Gal(b1-4)GlcNAc(b1-3)Gal(b1-4)GlcNAc(b1-3)Gal(b1-4)GlcNAc(b1-3)Gal(b1-4)GlcNAc(b1-3)Gal(b1-4)GlcNAc(b1-2)Man(a1-3)[Gal(b1-4)GlcNAc(b1-3)Gal(b1-4)GlcNAc(b1-3)Gal(b1-4)GlcNAc(b1-3)Gal(b1-4)GlcNAc(b1-3)Gal(b1-4)GlcNAc(b1-2)Man(a1-6)]Man(b1-4)GlcNAc(b1-4)[Fuc(a1-6)]GlcNAc
# Procedure, shortened: as §1
# [16] = target: Gal(b1-4)GlcNAc(b1-3)Gal(b1-4)GlcNAc(b1-3)Gal(b1-4)GlcNAc(b1-3)Gal(b1-4)GlcNAc(b1-3)Gal(b1-4)GlcNAc(b1-2)[Gal(b1-4)GlcNAc(b1-3)Gal(b1-4)GlcNAc(b1-3)Gal(b1-4)GlcNAc(b1-3)Gal(b1-4)GlcNAc(b1-3)Gal(b1-4)GlcNAc(b1-6)]Man(a1-6)[Gal(b1-4)GlcNAc(b1-3)Gal(b1-4)GlcNAc(b1-3)Gal(b1-4)GlcNAc(b1-3)Gal(b1-4)GlcNAc(b1-3)Gal(b1-4)GlcNAc(b1-2)Man(a1-3)]Man(b1-4)GlcNAc(b1-4)[Fuc(a1-6)]GlcNAc
# Procedure, shortened: as §1
# [17] = target: Gal(b1-4)GlcNAc(b1-3)Gal(b1-4)GlcNAc(b1-3)Gal(b1-4)GlcNAc(b1-3)Gal(b1-4)GlcNAc(b1-3)Gal(b1-4)GlcNAc(b1-3)Gal(b1-4)GlcNAc(b1-2)Man(a1-3)[Gal(b1-4)GlcNAc(b1-3)Gal(b1-4)GlcNAc(b1-3)Gal(b1-4)GlcNAc(b1-3)Gal(b1-4)GlcNAc(b1-3)Gal(b1-4)GlcNAc(b1-3)Gal(b1-4)GlcNAc(b1-2)Man(a1-6)]Man(b1-4)GlcNAc(b1-4)GlcNAc
# Procedure, shortened: as §1
# [18] = target: Gal(b1-4)GlcNAc(b1-3)Gal(b1-4)GlcNAc(b1-3)GalNAc
# Procedure, shortened: as §1
# [19] = target: Gal(b1-4)GlcNAc(b1-3)Gal(b1-4)GlcNAc(b1-3)[Gal(b1-4)GlcNAc(b1-3)Gal(b1-4)GlcNAc(b1-6)]GalNAc
# Procedure, shortened: as §1
binder,measurement,setting,value
B1,glycan array binding signal (z-score),[1],-0.274
same,glycan array binding signal (z-score),[2],-0.356
same,glycan array binding signal (z-score),[3],0.241
same,glycan array binding signal (z-score),[4],-0.476
same,glycan array binding signal (z-score),[5],0.131
same,glycan array binding signal (z-score),[6],1.19
same,glycan array binding signal (z-score),[7],0.432
same,glycan array binding signal (z-score),[8],0.782
same,glycan array binding signal (z-score),[9],-0.075
same,glycan array binding signal (z-score),[10],0.013
same,glycan array binding signal (z-score),[11],1.37
same,glycan array binding signal (z-score),[12],-0.293
same,glycan array binding signal (z-score),[13],0.144
same,glycan array binding signal (z-score),[14],0.003
same,glycan array binding signal (z-score),[15],1.07
same,glycan array binding signal (z-score),[16],0.513
same,glycan array binding signal (z-score),[17],-0.084
same,glycan array binding signal (z-score),[18],-0.065
same,glycan array binding signal (z-score),[19],-0.047
